Source: patent publication US20250250344A1 (KEXING BIOPHARM, published 2025)

T1: Human VEGFA165.his (ACRO, VE5-H5248) (human, UniProt P15692-4 27-191)
T1 construct: Bought protein; not shown: His tag ('VEGFA165.his')
T1 sequence (looked up): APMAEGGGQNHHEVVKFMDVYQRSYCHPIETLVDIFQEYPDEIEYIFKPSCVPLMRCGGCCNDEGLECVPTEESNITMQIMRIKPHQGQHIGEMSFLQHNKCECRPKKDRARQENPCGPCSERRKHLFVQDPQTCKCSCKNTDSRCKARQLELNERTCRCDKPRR

T2: Human ANG-2 protein (Sino Biological, 10691-H08H) (human, UniProt O15123 19-496)
T2 construct: Bought protein; also called human ANG-2.his; Angiopoietin-2; not shown: His tag ('ANG-2.his')
T2 sequence (looked up): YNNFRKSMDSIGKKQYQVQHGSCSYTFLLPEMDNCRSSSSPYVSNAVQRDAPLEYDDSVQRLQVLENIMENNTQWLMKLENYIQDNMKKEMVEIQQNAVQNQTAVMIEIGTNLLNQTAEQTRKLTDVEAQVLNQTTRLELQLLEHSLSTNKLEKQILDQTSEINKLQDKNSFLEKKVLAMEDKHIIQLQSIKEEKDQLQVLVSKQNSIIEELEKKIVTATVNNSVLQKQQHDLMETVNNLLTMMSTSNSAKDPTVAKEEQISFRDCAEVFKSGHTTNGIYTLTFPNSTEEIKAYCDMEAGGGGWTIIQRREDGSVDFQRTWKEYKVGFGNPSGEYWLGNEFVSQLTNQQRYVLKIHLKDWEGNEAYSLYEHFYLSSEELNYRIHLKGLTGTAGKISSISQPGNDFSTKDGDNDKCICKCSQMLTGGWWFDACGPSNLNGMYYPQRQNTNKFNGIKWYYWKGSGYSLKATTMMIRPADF

T3: VEGF165 (Novoprotein, C083) (UniProt P15692-4 27-191)
T3 sequence (looked up): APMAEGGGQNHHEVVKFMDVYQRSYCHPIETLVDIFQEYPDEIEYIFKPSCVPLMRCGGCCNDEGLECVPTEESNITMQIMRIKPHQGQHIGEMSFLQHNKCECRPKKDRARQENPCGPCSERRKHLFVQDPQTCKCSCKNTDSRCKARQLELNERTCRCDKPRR


What was measured:
[1] = biological target: T1, Human VEGFA165.his (ACRO, VE5-H5248); experiment: BLI, sample captured on ProA sensor, VEGFA165.his in solution
[2] = biological target: T2, Human ANG-2 protein (Sino Biological, …); experiment: BLI, ANG-2.his captured on NTA sensor, sample in solution
[3] = biological target: T3, VEGF165 (Novoprotein, C083); experiment: cell-based or functional assay
[4] = biological target: T3, VEGF165 (Novoprotein, C083); experiment: cell-based or functional assay; remark: listed apart in the source
[5] = biological target: T2, Human ANG-2 protein (Sino Biological, …); experiment: competition ELISA, ANG-2 binding to coated TIE2; relative to Faricimab = 100%
[6] = biological target: T2, Human ANG-2 protein (Sino Biological, …); experiment: competition ELISA, TIE2 coated, ANG-2 (100 ng/mL) plus sample, anti-His-HRP detection
[7] = biological target: T2, Human ANG-2 protein (Sino Biological, …); experiment: ELISA, human ANG-2 coated, anti-human Fc-HRP detection
[8] = biological target: T2, Human ANG-2 protein (Sino Biological, …); experiment: ELISA, human ANG-2 coated; relative to Faricimab = 100%

Binder | Kd [1] [pM] | koff [1] [s⁻¹] | kon [1] [M⁻¹ s⁻¹] | Kd [2] [pM] | koff [2] [s⁻¹] | kon [2] [M⁻¹ s⁻¹] | IC50 Values for HUVEC Proliferation Inhibition (CellTiter-Glo RLU) [3] [pM] | IC50 Values for VEGF Reporter Gene Inhibition (H-VEGF Reporter 293 cells, luciferase RLU) [4] [pM] | Relative Activity, VEGF reporter gene inhibition (against Faricimab = 100%) [4] [%] | Relative activity [5] [%] | IC50 [6] [pM] | EC50 [7] [pM] | Relative activity [8] [%]
GB10-04 tetravalent bispecific inhibitor (bispecific antibody, expressed in HEK 293 cells; also called GB10-04 antibody) SDTGRPFVEMYSEIPEIIHMTEGRELVIPCRVTSPNITVTLKKFPLDTLIPDGKRIIWDSRKGFIISNATYKEIGLLTCEATVNGHLYKTNYLTHRQTNTIIDVVLSPSHGIELSVGEKLVLNCTARTELNVGIDFNWEYPSSKHQHKKLVNRDLKTQSGSEMKKFLSTLTIDGVTRSDQGLYTCAASSGLMTKKNSTFVRVHEK[human IgG1 Fc left out]GGGSGGGGSGGGGSGGGGSQLQLVESGGGLVQPGGSLRLSCAASGFTLGYYSIGWFRQAPGKEREGVSCISRTDGSTYYADSVKGRFTISRDNAKNTVYLQMNNLKPEDTAVYYCAVKGARYSGSYLCGLDEYDYWGQGTQVTVSS | 954 | 0.000388 | 407000 | < 1 | < 1e-07 | 1.06e+06 | 29 | 30 | 557 | 7070 | 112 |  | 
GB10-14 tetravalent bispecific inhibitor (bispecific antibody, expressed in HEK 293 cells; also called GB10-14 antibody) SDTGRPFVEMYSEIPEIIHMTEGRELVIPCRVTSPNITVTLKKFPLDTLIPDGKRIIWDSRKGFIISNATYKEIGLLTCEATVNGHLYKTNYLTHRQTNTIIDVVLSPSHGIELSVGEKLVLNCTARTELNVGIDFNWEYPSSKHQHKKLVNRDLKTQSGSEMKKFLSTLTIDGVTRSDQGLYTCAASSGLMTKKNSTFVRVHEK[human IgG1 Fc left out]GGGSGGGGSGGGGSGGGGSQVQLVESGGGLVQPGGSLRLSCAASGSSFKFSTVRWYRQAPGKQREPVATHDDGSTNYEDSVKGRFTISRDNAKNTAFLQMNSLKPEDTAVYYCNADGSTGWGPRGDYWGRGTQVTVSS | 129 | 1.9e-05 | 147000 | < 1 | < 1e-07 | 35400 |  | 45 | 371 | 2000 | 396 |  | 
GB10-08 tetravalent bispecific inhibitor (bispecific antibody, expressed in HEK 293 cells; also called GB10-08 antibody) SDTGRPFVEMYSEIPEIIHMTEGRELVIPCRVTSPNITVTLKKFPLDTLIPDGKRIIWDSRKGFIISNATYKEIGLLTCEATVNGHLYKTNYLTHRQTNTIIDVVLSPSHGIELSVGEKLVLNCTARTELNVGIDFNWEYPSSKHQHKKLVNRDLKTQSGSEMKKFLSTLTIDGVTRSDQGLYTCAASSGLMTKKNSTFVRVHEK[human IgG1 Fc left out]GGGSGGGGSGGGGSGGGGSQVQLVESGGGLVQPGGSLRLSCAASGFSFSSATMSWHRQTPGKERTMVALIAYAGGSTTYADSVKGRFTISRDNAKNTVYLQMSNLKPEDTAVYYCNTRRYNRDFWGQGTQVTVSS | 492 | 0.000111 | 227000 | < 1 | < 1e-07 | 325000 |  | 48 | 347 | 9780 | 81 |  | 
GB10-03 tetravalent bispecific inhibitor (bispecific antibody, expressed in HEK 293 cells; also called GB10-03 antibody) SDTGRPFVEMYSEIPEIIHMTEGRELVIPCRVTSPNITVTLKKFPLDTLIPDGKRIIWDSRKGFIISNATYKEIGLLTCEATVNGHLYKTNYLTHRQTNTIIDVVLSPSHGIELSVGEKLVLNCTARTELNVGIDFNWEYPSSKHQHKKLVNRDLKTQSGSEMKKFLSTLTIDGVTRSDQGLYTCAASSGLMTKKNSTFVRVHEK[human IgG1 Fc left out]GGGSGGGGSGGGGSGGGGSQLQLVESGGGLVQPGGSLRLSCAASGFTLDYYAIGWFRQVPGKAREGLSCISSGDGSTYYADSVKGRFTISRDNTKNTVYLQMNSLKPEDTAVYSCAAVRSGSKCLVTRGTVVAAGQLYEYWGQGTQVTVSS | 884 | 2.24e-05 | 25400 | < 1 | < 1e-07 | 206000 |  | 45 | 366 | 1530 | 518 |  | 
GB10-09 tetravalent bispecific inhibitor (bispecific antibody, expressed in HEK 293 cells; also called GB10-09 antibody) SDTGRPFVEMYSEIPEIIHMTEGRELVIPCRVTSPNITVTLKKFPLDTLIPDGKRIIWDSRKGFIISNATYKEIGLLTCEATVNGHLYKTNYLTHRQTNTIIDVVLSPSHGIELSVGEKLVLNCTARTELNVGIDFNWEYPSSKHQHKKLVNRDLKTQSGSEMKKFLSTLTIDGVTRSDQGLYTCAASSGLMTKKNSTFVRVHEK[human IgG1 Fc left out]GGGSGGGGSGGGGSGGGGSQVQLVESGGGLVQPGGSLRLSCAASGSIFSFSTVRWYRQAPGKQREPVATLLDDGSTNYADSVKGRFTISTDNAKNTVYLQMNSLKPEDTAVYYCNADGRTGWGPRGDYWGRGTQVTVSS |  | 0.000388 | 407000 | < 1 | < 1e-07 | 144000 |  | 51 | 322 | 1480 | 533 |  | 
VHH-04 antibody (Fc fusion, Single-domain antibody variable region fused to human IgG1 Fc, expressed in CHO cells, purified on Protein A; also called ANG-2 single-domain antibody VHH-04) heavy: QLQLVESGGGLVQPGGSLRLSCAASGFTLGYYSIGWFRQAPGKEREGVSCISRTDGSTYYADSVKGRFTISRDNAKNTVYLQMNNLKPEDTAVYYCAVKGARYSGSYLCGLDEYDYWGQGTQVTVSS[human IgG1 Fc with changes left out] |  |  |  |  |  |  |  |  |  |  |  | 44 | 4250
VHH2-14 antibody (Fc fusion, Single-domain antibody variable region fused to human IgG1 Fc, expressed in CHO cells, purified on Protein A; also called ANG-2 single-domain antibody VHH2-14) heavy: QVQLVESGGGLVQPGGSLRLSCAASGSSFKFSTVRWYRQAPGKQREPVATHDDGSTNYEDSVKGRFTISRDNAKNTAFLQMNSLKPEDTAVYYCNADGSTGWGPRGDYWGRGTQVTVSS[human IgG1 Fc with changes left out] |  |  |  |  |  |  |  |  |  |  |  | 65 | 2880
VHH-08 antibody (Fc fusion, Single-domain antibody variable region fused to human IgG1 Fc, expressed in CHO cells, purified on Protein A; also called ANG-2 single-domain antibody VHH-08) heavy: QVQLVESGGGLVQPGGSLRLSCAASGFSFSSATMSWHRQTPGKERTMVALIAYAGGSTTYADSVKGRFTISRDNAKNTVYLQMSNLKPEDTAVYYCNTRRYNRDFWGQGTQVTVSS[human IgG1 Fc with changes left out] |  |  |  |  |  |  |  |  |  |  |  | 42 | 4450
VHH2-03 antibody (Fc fusion, Single-domain antibody variable region fused to human IgG1 Fc, expressed in CHO cells, purified on Protein A; also called ANG-2 single-domain antibody VHH2-03) heavy: QLQLVESGGGLVQPGGSLRLSCAASGFTLDYYAIGWFRQVPGKAREGLSCISSGDGSTYYADSVKGRFTISRDNTKNTVYLQMNSLKPEDTAVYSCAAVRSGSKCLVTRGTVVAAGQLYEYWGQGTQVTVSS[human IgG1 Fc with changes left out] |  |  |  |  |  |  |  |  |  |  |  | 96 | 1950
VHH2-09 antibody (Fc fusion, Single-domain antibody variable region fused to human IgG1 Fc, expressed in CHO cells, purified on Protein A; also called ANG-2 single-domain antibody VHH2-09) heavy: QVQLVESGGGLVQPGGSLRLSCAASGSIFSFSTVRWYRQAPGKQREPVATLLDDGSTNYADSVKGRFTISTDNAKNTVYLQMNSLKPEDTAVYYCNADGRTGWGPRGDYWGRGTQVTVSS[human IgG1 Fc with changes left out] |  |  |  |  |  |  |  |  |  |  |  | 88 | 2130
